# Assay results reported in PubChem BioAssay AID1346428 (National Center for Advancing Translational Sciences (NCATS), 2018).
# Hit rate of the full screen: of about 48,000 compounds, about 1,200 (2.5%) were called active. Another 2% or so got no clear call; they are omitted.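 Rule for the calls: active = activation of at least 60% and not above a set upper limit (about 1 call in 100 departs from these limits); inconclusive = activation of 40% to 60%, or above that upper limit; inactive = activation under 40%.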 This is one part of the list.
# Target: Probable G-protein coupled receptor 32 (Homo sapiens) (UniProt O75388)
# Chain of UniProt O75388 (O75388 whole entry, looked up): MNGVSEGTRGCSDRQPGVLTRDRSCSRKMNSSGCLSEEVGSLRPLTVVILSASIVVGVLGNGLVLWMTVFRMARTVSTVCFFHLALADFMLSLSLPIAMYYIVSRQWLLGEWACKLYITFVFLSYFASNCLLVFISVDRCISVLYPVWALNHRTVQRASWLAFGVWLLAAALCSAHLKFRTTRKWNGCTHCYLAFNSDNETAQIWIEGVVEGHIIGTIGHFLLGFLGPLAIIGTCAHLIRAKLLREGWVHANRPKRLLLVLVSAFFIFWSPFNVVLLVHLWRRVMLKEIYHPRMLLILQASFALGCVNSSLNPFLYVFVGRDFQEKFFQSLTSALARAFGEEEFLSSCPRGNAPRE
# Assay: qHTS for Agonists of Human Resolvin D1 Receptor DRV1
# Settings: CHO-K1 GPR32 beta-arrestin PathHunter luminescence, 90 min; at 76.9 µM; stronger effect = higher value; zero percent set by DMSO-only wells
# Text: Endogenous resolution of inflammation is known to be transduced through various GPCRs and their natural mediators of lipid nature. Resolvin D1 (RvD1) is one of the active players in resolution of acute inflammation through regulation of anti-inflammatory pathways; it is known to enhance phagocytosis of human macrophages, limits neutrophils infiltration, etc. […] The search for GPR32-activating small molecules with anti-inflammatory effects similar to its natural omega-3 derivative ligand in order to use them as research tools for further studies of inflammation and its resolution was the goal of this screening project. For primary screening assay, we used CHO-K1 GPR32 beta-arrestin cell line (DiscoveRx, #93-0321C2A) and the PathHunter(R) beta-Arrestin Assay (DiscoveRx) which measures recruitment of beta-arrestin to the GPR32 and generates chemiluminescent signal. These engineered cells stably transfected with GPR32 co-express GPR32-fused small 42-amino acid fragment of beta-Gal called ProLinktrade mark, and […] -tagged beta-Arrestin fusion protein. When GPR32 is activated by a ligand, it stimulates binding of beta -Arrestin to ProLink-tagged GPR32, and two parts of beta-Gal complement forming a functional enzyme. Upon substrate (PathHunter(R) Detection reagent) addition, beta-Gal hydrolyzes it and generates a chemiluminescent signal.
# The cells were thawed and plated in thawing media containing F-12 HAM (Invitrogen, #11765-054), 10% FBS (Invitrogen, #10082), 1x Glutamine, and 1x Pen/Strep onto the 175-mm flask for 24 hours. Then, thawing media was replaced with Growth media which contains 800microg/mL Geneticin (Invitrogen, #10131) and 300microg/mL Hygromycin B (Invitrogen, #10687) in addition to described above. For the assay, the cells were harvested at ~80% confluent stage with Cell Dissociation buffer (Gibco, #13151), and seeded at 2,500 cells/ 3microL/well in assay media (PathHunter(R) Cell Plating Reagent, DiscoverX, #93-0563R1B) using MultiDrop Combi dispenser (Thermo Scientific, Logan, UT) onto white solid bottom tissue culture-treated 1536-well plates (Greiner # 789173-F) and allowed to attach overnight at 37 degrees C, 95% humidity, 5% CO2, . Next, 23nL/well of compound solutions in DMSO were added with a Pin Tool (Kalypsis, San Diego, CA) to the assay plates. As the basal control (EC0), 23 nL/well of DMSO was used on each plate. The cells were incubated in the presence of compounds or DMSO for 90 minutes at 37 degrees C, 5% CO2. Subsequently, 1.5microL/well of PathHunter(R) Detection Reagent prepared per the manufacturer's instructions was added to the assay plates with BioRAPTR FRDtrade mark dispenser (Beckman Coulter, San Francisco, CA) and incubated for 1 hour at ambient temperature prior to the measurement of the luminescent signal on ViewLux(R) uHTS Microplate Imager (Perkin Elmer, Waltham, MA).
row,Structure (SMILES),activation
1,COc1cccc(NC(=O)CCCn2c(=O)c3cccn3c3cccnc32)c1,inactive: -27.1%
2,Cc1ccc(CCNC(=O)c2ccc3c(c2)N(Cc2ccccc2F)C(=O)c2ccccc2S3=O)cc1 (stereo not drawn),inactive: 11.8%
3,Fc1ccc(-c2csc(=Nc3cccc(C(F)(F)F)c3)n2Cc2ccc3c(c2)OCO3)cc1,inactive: 3.63%
4,CCOC(=O)c1c(S(=O)(=O)NCC(=O)Nc2ccc(C(C)=O)cc2)c(C)n(C)c1C,inactive: -6.17%
5,COc1ccc(-c2nc(CCNC(=O)c3ccccc3)cs2)cc1OC,inactive: -4.93%
6,Fc1ccc(-c2cc(-c3ccccc3)c3c(n2)-c2ccccc2OC3)cc1,inactive: -1.07%
7,Cc1cccc(C)c1NC(=O)CCCn1c(=O)c2cccn2c2ccccc21,inactive: -18.6%
8,O=C1C(=O)N(C2CCNCC2)CCN1Cc1ccccc1,inactive: -0.782%
9,CC(=O)Nc1c(C)nn(-c2ccccc2)c1N1CCC(C(=O)Nc2ccccc2C(F)(F)F)CC1,inactive: -0.628%
10,O=C(CN1c2ccc(Br)cc2-c2ccccc2S1(=O)=O)N1CCCCC1,inactive: -14.2%
11,Cc1ccc(NC(=O)N2CCN(Cc3nc4ccc(C)cc4o3)CC2)cc1,inactive: -8.97%
12,COc1cccc(Nc2nc3c(S(=O)(=O)c4cc(C)ccc4C)nnn3c3ccsc23)c1,inactive: -6.56%
13,CCN1CCc2nc3sc(C(=O)Nc4ccccc4OC(F)(F)F)c(N)c3cc2C1,inactive: -17.3%
14,Cc1cc(C)c(NC(=O)CSC2=Nc3ccccc3C3=NC(CC(=O)NCc4cccs4)C(=O)N23)c(C)c1 (stereo not drawn),inactive: -19.3%
15,CC(C)c1ccc2c(c1)c(SC(C)(C)C)c(CC(C)(C)C(=O)O)n2Cc1ccc(Cl)cc1,inactive: -7.85%
16,Cc1cc(=O)c2cc(C(=O)Nc3ccc(F)cc3)ccc2[nH]1,inactive: 6.44%
17,CCOC(=O)N1CCN(S(=O)(=O)N2CCCC(C(=O)NCc3cc(Br)ccc3OC)C2)CC1 (stereo not drawn),inactive: 13.6%
18,Cc1cccn2c(=O)c(C(=O)NC(C)c3ccccc3)c(O)nc12 (stereo not drawn),inactive: -12.6%
19,CCOc1ccc(Nc2oc(/C=C/c3ccc(OC)c(OC)c3)nc2C#N)cc1,inactive: -15%
20,COc1ccc(CNc2oc(/C=C/c3cc(OC)c(OC)c(OC)c3)nc2C#N)cc1,inactive: -24.5%
21,O=C(Cn1c(-c2cccs2)cc2cc(F)ccc21)N1CCN(c2ccccc2)CC1,inactive: -14.7%

row,Structure (SMILES),activation
1,COc1ccc(C)cc1-n1nnc(S(=O)(=O)c2ccc(C)cc2)c1C,inactive: 9.94%
2,COc1ccc2c(C)c(CCC(=O)NCc3ccccc3OC)c(=O)oc2c1,inactive: 4.97%
3,CN1CCCCC1CCN1c2ccccc2Sc2ccc(S(C)=O)cc21 (stereo not drawn),active: 64.5%
4,CCN(CC)S(=O)(=O)c1ccc(C(=O)NC2CC(=O)N(c3ccc(OC)c(OC)c3)C2)cc1 (stereo not drawn),inactive: -5.41%
5,O=C(COc1ccc(Cl)cc1)NCC(c1ccco1)S(=O)(=O)c1ccc(F)cc1 (stereo not drawn),inactive: -13.8%
6,CCOCCCNC(=O)C(=O)Nc1c2c(nn1-c1ccccc1)CSC2,inactive: -28.1%
7,Cc1ccc(N(CC(=O)NCCSc2ccccc2)S(=O)(=O)c2ccc(F)cc2)cc1,inactive: 37.9%
8,CC(=O)c1ccc(NC(=O)c2cc3sccc3n2Cc2ccc(Cl)cc2)cc1,inactive: 23.3%
9,COCCCn1c(=O)c2sccc2n2c(CCCC(=O)Nc3cccc(OC)c3)nnc12,inactive: -3.12%
10,COc1ccc(CNC(=O)c2cc3cccc4c3n2CC(C)S4)cc1OC (stereo not drawn),inactive: -23.5%
11,COc1ccc(Cl)cc1NC(=O)Cn1nc(C(F)(F)F)c2c1CCCC2,inactive: 4.04%
12,Cc1cccc(NC(=O)C2CCCN(S(=O)(=O)c3ccc4c(c3)CCCC(=O)N4)C2)c1 (stereo not drawn),inactive: 13.7%
13,COCCCn1c(SCC(=O)Nc2ccc(F)cc2)nc2c(sc3ccccc32)c1=O,inactive: -10.2%
14,CCOc1ccc(-n2c(SCC(=O)N3CCc4ccccc43)nc3c([nH]c4ccccc43)c2=O)cc1,inactive: -9.13%
15,COc1cccc2c1ncc1c(-c3ccc(C)cc3)nn(-c3cccc([N+](=O)[O-])c3)c12,inactive: -0.974%
16,CCC(=O)Nc1cc(-c2cccc(C)c2)nn1-c1ccccc1,inactive: -10.6%
17,Cc1cccc(-c2nc(SCC(=O)N3CCc4ccccc43)c3c(=O)n(C)c(=O)n(C)c3n2)c1,inactive: -7.19%
18,COc1ccc(N2CCN(Cc3nc4c(c(=O)[nH]c(=O)n4C)n3Cc3ccc(Cl)cc3)CC2)cc1,inactive: -9.56%
19,CCOC(=O)CNc1nc(Oc2ccc(=O)n(C)n2)nc(N(CC)CC)n1,inactive: 9.27%
20,CCCN(Cc1cccs1)C(=O)Nc1ccc(OCC)cc1,inactive: -14.3%
21,COc1ccc(NC(=O)Cn2c(=O)c(-c3cc(C)ccc3NC(C)=O)nc3ccccc32)c(OC)c1,inactive: -5.76%

row,Structure (SMILES),activation
1,Cc1cc(C)cc(NC(=O)C(=O)NCC(c2ccc3c(c2)OCO3)N2CCN(C)CC2)c1 (stereo not drawn),inactive: -9.33%
2,Cc1cc(=O)[nH]c2nnc(SCC(=O)Nc3ccc(OC(F)(F)F)cc3)n12,inactive: 39.9%
3,Cc1ccc(C2CCN(C(=O)c3cnn(-c4cccc(Cl)c4)c3C3CCN(C(=O)OC(C)(C)C)CC3)C2)cc1 (stereo not drawn),inactive: -20.8%
4,O=C(COc1ccccc1)NCc1ccc2c(c1)CCN2C(=O)c1ccc(Cl)cc1,inactive: 0.0283%
5,COc1ccc(NC(=O)N(CCC(C)C)C(C)c2cccs2)c(OC)c1 (stereo not drawn),inactive: -21.8%
6,CC(C)Cn1c(=O)n(C)c(=O)c2[nH]cnc21,inactive: -5.17%
7,COc1ccc(OC)c(NC(=O)c2cc(-c3ccc(Cl)s3)nc3ccccc23)c1,inactive: -6.73%
8,COc1ccccc1CNC(=O)CCc1c(C)nn(-c2ccc(N3CCOCC3)nn2)c1C,inactive: -18.4%
9,NCc1nc2cccnc2n1Cc1ccccc1Cl,inactive: -5.06%
10,O=C(NCc1ccco1)c1ccc2c(c1)N(Cc1ccccc1)C(=O)c1ccccc1S2(=O)=O,inactive: -19.3%
11,COCCNc1ncnc2c1c(-c1ccccc1)cn2-c1ccc(C)c(Cl)c1,inactive: -23.6%
12,CCCCOc1cc(CC2CNC(=O)N2)ccc1OC (stereo not drawn),inactive: 7.99%
13,COc1ccc(NC(=O)CSc2nc3c([nH]c4ccccc43)c(=O)n2-c2ccccc2)c(OC)c1,inactive: -25%
14,CCOc1ccc(NC(=O)Cn2c3ncccc3c(=O)n2-c2ccc(CC)cc2)cc1,inactive: -7.85%
15,COc1ccc(-n2ncc3c(NC(C)(C)CO)ncnc32)cc1,inactive: 9.04%
16,Cc1nc2cccnc2n1C1CCN(S(C)(=O)=O)CC1,inactive: 15.7%
17,Cc1cc(S(=O)(=O)C(CNC(=O)c2ccc(OC(C)C)cc2)c2cccs2)ccc1F (stereo not drawn),inactive: 1.23%
18,Cc1ccc(CNC(=O)c2oc3c(c2C)-c2nn(Cc4ccc(Cl)cc4)cc2CC3)cc1,inactive: -20.4%
19,CCN(CC)S(=O)(=O)c1ccc(NC(=O)NCc2noc3ccc(C)cc23)cc1,inactive: 31.3%
20,COc1ccc(CNC(=O)Cn2nnc(-c3ccc(C(F)(F)F)cc3)n2)cc1,inactive: 4.65%
21,CCOC(=O)c1ccc(N2C(=O)c3n[nH]c(C)c3C2c2cccc(Br)c2)cc1 (stereo not drawn),inactive: -23.2%

row,Structure (SMILES),activation
1,O=c1cc(-c2ccccc2)n2c(SCc3ccc(Cl)cc3)nnc2[nH]1,inactive: 11.8%
2,COc1ccc(C(=O)c2cn(Cc3ccccc3F)c3cc4c(cc3c2=O)OCO4)cc1,inactive: 7.91%
3,COc1ccccc1C(=O)Nc1ccc2oc(-c3cccc(Cl)c3Cl)nc2c1,inactive: -10%
4,CC(C)C(=O)NCC(c1ccc2c(c1)OCO2)N1CCN(c2ccccc2F)CC1 (stereo not drawn),inactive: -12.8%
5,COc1ccc(-n2c3c(cc(-c4nc(-c5ccc(C)cc5)cs4)c2=O)C(=O)CC(C)(C)C3)cc1,inactive: 20.3%
6,CC1CCCN(C(=O)c2cc3c(=O)n(C)c4ccccc4c3s2)C1 (stereo not drawn),inactive: -0.534%
7,Cc1ccc2nc(N3CCC(C(=O)N4CCN(c5cccc(C)c5C)CC4)CC3)[nH]c2c1,inactive: 24%
8,Cc1sc2c(c1C)c(=O)n(-c1ccc(Cl)cc1)c(=O)n2Cc1cc(=O)n2ccccc2n1,inactive: -0.232%
9,O=c1[nH]cnc2c1ncn2[C@@H]1O[C@H](CO)[C@@H](O)[C@H]1O,inactive: -16.6%
10,CCOc1ccc(C(=O)NCc2nc3cccnc3n2Cc2ccc(F)cc2)cc1OCC,inactive: -14%
11,COc1ccc(C2C(C(N)=O)=C(C)Nc3nc(SCc4ccccc4Cl)nn32)cc1OC (stereo not drawn),inactive: 16.7%
12,CCOC(=O)c1ccccc1NC(=O)CSc1nc2ccncc2[nH]1,inactive: 3.74%
13,O=C(NCc1ccco1)c1ccc(Cn2c(SCc3ccc(F)cc3)nc3cccnc32)cc1,inactive: -21.9%
14,O=C(CCS(=O)(=O)c1cccc2nonc12)Nc1c(F)cccc1F,inactive: 6.83%
15,CC1CCc2c(sc3nc(-c4cc5cc(Br)ccc5oc4=O)[nH]c(=O)c23)C1 (stereo not drawn),inactive: -4.65%
16,Cc1cc(C)cc(NC(=O)N2CCC3(CC2)Oc2ccccc2C(=O)N3Cc2ccccc2F)c1,inactive: -15.1%
17,COc1cccc(N2CCN(C(=O)c3cccc(-n4c(C)nc5cccnc54)c3)CC2)c1,inactive: 40.2%
18,CCOC(=O)c1ccc(CN(Cc2ccc(F)cc2)S(=O)(=O)c2ccc(F)c(C(=O)Nc3ccc(Cl)cc3F)c2)cc1,inactive: -10.8%
19,CCOc1ccc(NC(=O)c2c(NCc3cccnc3)sc3c2CCCC3)cc1,inactive: -3.66%
20,COc1ccc(Br)c(C(=O)Nc2cc3c(cc2N2CCOCC2)n(C)c(=O)n3C)c1,inactive: 0.0263%
